This note sets out measurements from US11390580B2, “Anti-fungals targeting the synthesis of fungal shingolipids” (THE RESEARCH FOUNDATION FOR THE STATE UNIVERSITY OF NEW YORK, priority 2014, dated 2022).

In series [1] the test system is mammalian GlcCer in bone marrow derived macrophages. The settings on record: treated for three days.
A further series deals with J774.16 cells. The experiment in a line: In vitro toxicity, MTT assay. The settings on record: for toxicity: J774; for toxicity when combined with dexamethasone: J774, 24 hr.

Take `Cc1ccccc1C(=O)NN=Cc1ccc(O)c(Br)c1` [BHBM, N′-(3-bromo-4-hydroxybenzylidene)-2-methylbenzohydrazide]: in series [1], the GlcCer level entry is given as “did not significantly affect GlcCer level”. In the series with J774.16 cells, the EC50/MIC80 selectivity index came out at 50, the toxicity result is “no or a slight toxicity” and the “toxicity when combined with dexamethasone” value is recorded as “enhanced”.
On to `O=C(NN=Cc1ccc(O)c(Br)c1)c1cccc(Br)c1` [Compound 1, 3-bromo-N′-(3-bromo-4-hydroxybenzylidene) benzohydrazide], for which, in the series on J774.16 cells, the EC50/MIC80 selectivity index was over 100, the toxicity entry was “no or a slight toxicity” and the “toxicity when combined with dexamethasone” value is recorded as “increased toxicity”.
